14 compounds from the supplement of paper PMC4604168 (melanoma cell lines) can be followed below.

Some of the results follow. Single values are uncertain, as repeats are few or missing.
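Further: cell number obtained by counting DAPI-stained nuclei in high-throughput microscope images with image analysis software, screen run in 1,536-well plates.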

The test system of this test is RVH-421. Kind of test: cell count relative to DMSO control; melanoma cells; higher = more viable cells. The conditions noted are these: library dose: low library concentration; 72 h.
Take `O=C(O)[C@@H]1[O][Sb](=[O])([O][Sb]2(=[O])[O][C@H]([C@H](O)CO)[C@H](O)[C@H](C(=O)O)[O]2)[O][C@H]([C@H](O)CO)[C@@H]1O` (some centres undefined) [stibogluconate] + CN(C)S(=O)(=O)c1ccc2c(c1)/C(=C/c1cc3c([nH]1)CCCC3)C(=O)N2 [SU6656] (first compound 2 µM, partner dose 0.4 µM): the cell count is 109%.

With `O=C(O)c1ccc2c(c1)nc(Nc1cccc(Cl)c1)c1ccncc12` + C[C@]1(c2nc3c(C(N)=O)cccc3[nH]2)CCCN1 [Veliparib] (first compound 0.4 µM, partner dose 1.4 µM), the cell count was 110%.

`O=C(Nc1cc(C(F)(F)F)cc(C(F)(F)F)c1)c1cc(Cl)ccc1O` + NC(=O)c1ccc(N(C(N)=O)c2c(F)cccc2F)nc1-c1ccc(F)cc1F [VX702] (first compound 0.016 µM, partner dose 0.4 µM) registered a cell count of 81.7%.

Consider `O=C(Nc1cc(C(F)(F)F)cc(C(F)(F)F)c1)c1cc(Cl)ccc1O` + Cn1cnc2c(F)c(Nc3ccc(Br)cc3Cl)c(C(=O)NOCCO)cc21 [selumetinib] (first compound 0.016 µM, partner dose 0.015 µM), for which the cell count worked out at 86.5%.

Take `O=C(O)c1ccc2c(c1)nc(Nc1cccc(Cl)c1)c1ccncc12` + O=C1NC(=O)/C(=C/c2ccc(-c3ccc(F)cc3O)o2)S1 [AS252424] (first compound 0.4 µM, partner dose 1 µM): the cell count was 113%.

Take `O=C(Nc1cc(C(F)(F)F)cc(C(F)(F)F)c1)c1cc(Cl)ccc1O` + O=C(O)[C@@H]1[O][Sb](=[O])([O][Sb]2(=[O])[O][C@H]([C@H](O)CO)[C@H](O)[C@H](C(=O)O)[O]2)[O][C@H]([C@H](O)CO)[C@@H]1O [stibogluconate] (first compound 0.016 µM, partner dose 2 µM): the cell count was found to be 126%.

`O=C(O)c1ccc2c(c1)nc(Nc1cccc(Cl)c1)c1ccncc12` + OCc1c[nH]c2ccccc12 [Indole-3-carbinol] (first compound 0.4 µM, partner dose 0.8 µM): the cell count came to 102%.

For `O=C(Nc1cc(C(F)(F)F)cc(C(F)(F)F)c1)c1cc(Cl)ccc1O` + COc1cc2ncnc(Nc3ccc(Oc4ccccc4)cc3)c2cc1OC [SrcI1] (first compound 0.016 µM, partner dose 2 µM), the cell count was 97.7%.

In turn, `O=C(O)[C@@H]1[O][Sb](=[O])([O][Sb]2(=[O])[O][C@H]([C@H](O)CO)[C@H](O)[C@H](C(=O)O)[O]2)[O][C@H]([C@H](O)CO)[C@@H]1O` (some centres undefined) [stibogluconate] + COc1cc(Nc2ncc(F)c(Nc3ccc4c(n3)NC(=O)C(C)(C)O4)n2)cc(OC)c1OC [Tamatinib] (first compound 2 µM, partner dose 0.4 µM) came in with a cell count of 95.7%.

For `O=C(Nc1cc(C(F)(F)F)cc(C(F)(F)F)c1)c1cc(Cl)ccc1O` + CC1(C)CCC(c2ccc(Cl)cc2)=C(CN2CCN(c3ccc(C(=O)NS(=O)(=O)c4ccc(N[C@H](CCN5CCOCC5)CSc5ccccc5)c(S(=O)(=O)C(F)(F)F)c4)cc3)CC2)C1 [ABT263] (first compound 0.016 µM, partner dose 0.4 µM), the cell count came out at 62.4%.

In the case of `O=C(Nc1cc(C(F)(F)F)cc(C(F)(F)F)c1)c1cc(Cl)ccc1O` + CC(C)CCN1c2nc(Nc3cc(F)c(O)c(F)c3)ncc2N(C)C(=O)C1C [BID1870] (first compound 0.016 µM, partner dose 0.2 µM), the cell count stood at 84%.

Compound `O=C(Nc1cc(C(F)(F)F)cc(C(F)(F)F)c1)c1cc(Cl)ccc1O` + O=C(Nc1cccc(Cl)c1)Nc1ncc(CCNc2ncnc3ccsc23)s1 [SNS314] (first compound 0.016 µM, partner dose 0.0008 µM) displayed a cell count of 95.8%.

Take `O=C(O)[C@@H]1[O][Sb](=[O])([O][Sb]2(=[O])[O][C@H]([C@H](O)CO)[C@H](O)[C@H](C(=O)O)[O]2)[O][C@H]([C@H](O)CO)[C@@H]1O` (some centres undefined) [stibogluconate] + CCc1ccc(CCOc2ccc(CC3SC(=O)NC3=O)cc2)nc1 [pioglitazone] (first compound 2 µM, partner dose 2 µM): the cell count came to 102%.

As to `O=C(O)[C@@H]1[O][Sb](=[O])([O][Sb]2(=[O])[O][C@H]([C@H](O)CO)[C@H](O)[C@H](C(=O)O)[O]2)[O][C@H]([C@H](O)CO)[C@@H]1O` (some centres undefined) [stibogluconate] + O=C(O)C(=O)Nc1sc2c(c1C(=O)O)CCNC2 [TCS401] (first compound 2 µM, partner dose 1.66667 µM), the cell count came to 116%.
